According to publication PMC11532494 (Nature Communications, 2024):

Experiments:
BsAcuC (2c) = molecular target: T1, BsAcuC (2c) (Bacillus subtilis, UniProt P39067); assay: Inhibitor screening assay (10 µM or 1 µM); assay type: biochemical
T1 construct: made in house; host or cells: E. coli BL21 (DE3)
T1 sequence (P39067 1-387): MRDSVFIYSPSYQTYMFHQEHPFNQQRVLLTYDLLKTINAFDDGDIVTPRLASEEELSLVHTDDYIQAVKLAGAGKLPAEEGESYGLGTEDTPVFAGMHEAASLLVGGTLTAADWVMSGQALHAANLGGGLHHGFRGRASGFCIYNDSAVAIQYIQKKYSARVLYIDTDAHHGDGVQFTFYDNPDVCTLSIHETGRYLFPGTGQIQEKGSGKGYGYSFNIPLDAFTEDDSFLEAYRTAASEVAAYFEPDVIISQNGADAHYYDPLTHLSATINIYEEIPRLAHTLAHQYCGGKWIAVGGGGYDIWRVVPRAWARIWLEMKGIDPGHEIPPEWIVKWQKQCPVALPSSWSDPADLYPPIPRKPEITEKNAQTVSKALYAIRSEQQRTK
Excerpt: Data was transformed to relative enzyme activity (%) compared to control wells without inhibitors.

KpHdaH (1b) = KpHdaH (1b) (Klebsiella pneumoniae, UniProt A0A377Z5F6); assay type: biochemical; conditions: for % residual activity: individual replicates
VsHdaH (1b) [1] = assay type: biochemical, Vibrio sp.; conditions: for % residual activity: individual replicates
LcApaH (3) = LcApaH (3) (Legionella cherrii, UniProt A0A0W0SGS1); assay: biochemical
RwDmhA (1b) [2] = molecular target: T2, RwDmhA (1b) (Rhizorhabdus wittichii, UniProt A0A067XIQ6); assay type: biochemical; conditions: for % residual activity: individual replicates
PsApaH (4) [3] = molecular target: T3, PsApaH (4) (Pseudomonas sp. M30-35, UniProt A0A1Y0KY79); assay: Inhibitor screening assay (10 µM or 1 µM); conditions: for % residual activity / % residual activity, mean: PsApaH (4); for % residual activity: individual replicates
RwDmhA (1b) [4] = molecular target: T2, RwDmhA (1b); assay type: biochemical; conditions: for % residual activity, means: mean; for % residual activity: single measurement
VsHdaH (1b) [5] = assay type: biochemical, Vibrio sp.; conditions: for % residual activity, means: mean; for % residual activity: single measurement
PsApaH (4) [6] = molecular target: T3, PsApaH (4); assay: Dose-response inhibition assay; conditions: for % residual activity, means: mean; for % residual activity: single measurement
[7] = 1 µM inhibitor, single measurements (two columns), 40 µM LGKac, 60 min, 37 °C
[8] = 10 µM inhibitor, single measurements (two columns), 40 µM LGKac, 60 min, 37 °C
[9] = BsAcuC (2c), inhibitor 1 µM, individual replicates, 1 µM
[10] = BsAcuC (2c), inhibitor 10 µM, individual replicates, 10 µM

T3 sequence (A0A1Y0KY79 1-342 limits assumed): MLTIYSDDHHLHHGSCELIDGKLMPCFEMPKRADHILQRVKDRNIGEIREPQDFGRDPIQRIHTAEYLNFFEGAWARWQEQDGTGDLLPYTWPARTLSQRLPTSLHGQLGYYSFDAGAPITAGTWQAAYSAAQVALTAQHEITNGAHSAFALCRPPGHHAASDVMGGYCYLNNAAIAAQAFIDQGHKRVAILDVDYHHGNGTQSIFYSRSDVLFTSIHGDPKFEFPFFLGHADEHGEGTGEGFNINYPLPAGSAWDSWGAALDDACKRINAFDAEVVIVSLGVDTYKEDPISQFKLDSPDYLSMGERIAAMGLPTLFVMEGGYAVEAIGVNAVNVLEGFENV
Sequence of KpHdaH (1b) (A0A377Z5F6 1-371): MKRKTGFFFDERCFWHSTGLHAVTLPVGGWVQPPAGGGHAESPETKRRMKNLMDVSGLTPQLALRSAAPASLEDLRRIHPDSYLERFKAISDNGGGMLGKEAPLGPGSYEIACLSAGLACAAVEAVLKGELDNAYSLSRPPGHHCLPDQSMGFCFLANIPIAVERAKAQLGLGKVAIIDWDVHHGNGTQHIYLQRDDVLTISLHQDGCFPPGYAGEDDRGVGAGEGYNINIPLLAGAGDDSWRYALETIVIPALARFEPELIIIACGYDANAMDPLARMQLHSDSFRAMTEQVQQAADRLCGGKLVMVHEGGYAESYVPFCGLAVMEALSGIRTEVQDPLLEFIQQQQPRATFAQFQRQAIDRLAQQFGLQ
T2 sequence (A0A067XIQ6 1-369): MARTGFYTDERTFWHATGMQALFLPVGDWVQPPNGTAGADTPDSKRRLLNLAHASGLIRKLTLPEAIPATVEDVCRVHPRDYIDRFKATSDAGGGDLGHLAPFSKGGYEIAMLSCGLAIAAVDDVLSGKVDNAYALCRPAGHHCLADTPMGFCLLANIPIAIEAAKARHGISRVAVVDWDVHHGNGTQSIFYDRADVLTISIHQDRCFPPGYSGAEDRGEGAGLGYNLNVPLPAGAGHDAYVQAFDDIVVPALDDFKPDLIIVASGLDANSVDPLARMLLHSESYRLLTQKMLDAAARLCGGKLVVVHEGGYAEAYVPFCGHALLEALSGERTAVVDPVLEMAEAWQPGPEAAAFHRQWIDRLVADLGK
Sequence of LcApaH (3) (A0A0W0SGS1 1-425): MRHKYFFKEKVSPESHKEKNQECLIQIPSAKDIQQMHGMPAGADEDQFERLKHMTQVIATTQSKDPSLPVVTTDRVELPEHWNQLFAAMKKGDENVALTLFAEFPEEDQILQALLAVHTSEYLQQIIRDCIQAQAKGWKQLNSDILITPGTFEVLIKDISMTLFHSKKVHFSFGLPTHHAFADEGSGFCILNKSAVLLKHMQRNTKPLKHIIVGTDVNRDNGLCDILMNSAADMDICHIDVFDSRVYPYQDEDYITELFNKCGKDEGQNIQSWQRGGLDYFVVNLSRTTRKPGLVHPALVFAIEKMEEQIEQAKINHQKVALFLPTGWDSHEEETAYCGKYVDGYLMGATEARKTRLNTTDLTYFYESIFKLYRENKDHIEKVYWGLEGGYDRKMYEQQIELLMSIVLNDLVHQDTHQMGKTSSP

## Nc1ccccc1NC(=O)c1ccc(CNC(=O)OCc2cccnc2)cc1 [Entinostat, entinostat]
BsAcuC (2c); [7]
  % residual activity: 97.9% and 101.5%
BsAcuC (2c); [8]
  % residual activity: 84.8% and 93.1%
BsAcuC (2c); [9]
  % residual activity: 97.9% and 101.5%
BsAcuC (2c); BsAcuC (2c), inhibitor 1 µM
  % residual activity, mean: 99.7%
BsAcuC (2c); [10]
  % residual activity: 84.8% and 93.1%
BsAcuC (2c); BsAcuC (2c), inhibitor 10 µM
  % residual activity, mean: 88.95%
KpHdaH (1b); inhibitor 1 µM, 1 µM
  % residual activity: 98.2% and 100.3%
KpHdaH (1b); inhibitor 1 µM
  % residual activity, mean: 99.25%
KpHdaH (1b); inhibitor 10 µM, 10 µM
  % residual activity: 107.9% and 99.1%
KpHdaH (1b); inhibitor 10 µM
  % residual activity, mean: 103.5%
VsHdaH (1b) [1]; inhibitor 1 µM, 1 µM
  % residual activity: 104% and 99.6%
VsHdaH (1b) [1]; inhibitor 1 µM
  % residual activity, mean: 101.8%
VsHdaH (1b) [1]; inhibitor 10 µM, 10 µM
  % residual activity: 103.5% and 100.2%
VsHdaH (1b) [1]; inhibitor 10 µM
  % residual activity, mean: 101.85%
LcApaH (3); [7]
  % residual activity: 102% and 104.4%
LcApaH (3); [8]
  % residual activity: 102.7% and 104.2%
LcApaH (3); LcApaH (3), inhibitor 1 µM, individual replicates, 1 µM
  % residual activity: 102% and 104.4%
LcApaH (3); LcApaH (3), inhibitor 1 µM
  % residual activity, mean: 103.2%
LcApaH (3); LcApaH (3), inhibitor 10 µM, individual replicates, 10 µM
  % residual activity: 102.7% and 104.2%
LcApaH (3); LcApaH (3), inhibitor 10 µM
  % residual activity, mean: 103.45%
RwDmhA (1b) [2]; inhibitor 1 µM, 1 µM
  % residual activity: 99% and 99.4%
RwDmhA (1b) [2]; inhibitor 1 µM
  % residual activity, mean: 99.2%
RwDmhA (1b) [2]; inhibitor 10 µM, 10 µM
  % residual activity: 106.6% and 100.4%
RwDmhA (1b) [2]; inhibitor 10 µM
  % residual activity, mean: 103.5%
PsApaH (4) [3]; inhibitor 1 µM, 1 µM
  % residual activity: 101%
PsApaH (4) [3]; inhibitor 10 µM, 10 µM
  % residual activity: 107%
PsApaH (4) [3]; read-out: % residual activity, PsApaH (4), inhibitor 1 µM, individual replicates
  remaining activity at 1 µM: 94.5%
PsApaH (4) [3]; read-out: % residual activity, PsApaH (4), inhibitor 10 µM, individual replicates
  remaining activity at 10 µM: 112%
PsApaH (4) [3]; read-out: % residual activity, mean, PsApaH (4), inhibitor 1 µM, mean
  remaining activity at 1 µM: 97.8%
PsApaH (4) [3]; read-out: % residual activity, mean, PsApaH (4), inhibitor 10 µM, mean
  remaining activity at 10 µM: 110%

## O=C(CCCCCCC(=O)Nc1ccccc1)NO [SAHA, suberoylanilide hydroxamic acid]
BsAcuC (2c); [7]
  % residual activity: 86.2%
BsAcuC (2c); [8]
  % residual activity: 65%
BsAcuC (2c); [9]
  % residual activity: 86.2%
BsAcuC (2c); [10]
  % residual activity: 65%
RwDmhA (1b) [4]; [inhibitor] 1.52e-9 M
  % residual activity, means: 99.95%
  % residual activity: 98.6% and 101.3%
RwDmhA (1b) [4]; [inhibitor] 4.57e-9 M
  % residual activity, means: 94.6%
  % residual activity: 92.9% and 96.3%
RwDmhA (1b) [4]; [inhibitor] 1.37e-8 M
  % residual activity, means: 87.05%
  % residual activity: 86.1% and 88%
RwDmhA (1b) [4]; [inhibitor] 4.12e-8 M
  % residual activity, means: 71.15%
  % residual activity: 71.3% and 71%
RwDmhA (1b) [4]; [inhibitor] 1.23e-7 M
  % residual activity, means: 46.65%
  % residual activity: 45.7% and 47.6%
RwDmhA (1b) [4]; [inhibitor] 3.7e-7 M
  % residual activity, means: 22.75%
  % residual activity: 22.2% and 23.3%
RwDmhA (1b) [4]; [inhibitor] 1.11e-6 M
  % residual activity, means: 9.65%
  % residual activity: 9.2% and 10.1%
RwDmhA (1b) [4]; [inhibitor] 3.33e-6 M
  % residual activity, means: 4.4%
  % residual activity: 3.8% and 5%
RwDmhA (1b) [4]; [inhibitor] 1e-5 M
  % residual activity, means: 2.15%
  % residual activity: 2.1% and 2.2%
RwDmhA (1b) [4]; [inhibitor] 3e-5 M
  % residual activity, means: 1.4%
  % residual activity: 1.8% and 1%
VsHdaH (1b) [5]; [inhibitor] 1.52e-9 M
  % residual activity, means: 85.1%
  % residual activity: 80% and 90.2%
VsHdaH (1b) [5]; [inhibitor] 4.57e-9 M
  % residual activity, means: 75.2%
  % residual activity: 74.7% and 75.7%
VsHdaH (1b) [5]; [inhibitor] 1.37e-8 M
  % residual activity, means: 55.1%
  % residual activity: 55.4% and 54.8%
VsHdaH (1b) [5]; [inhibitor] 4.12e-8 M
  % residual activity, means: 30.1%
  % residual activity: 30.3% and 29.9%
VsHdaH (1b) [5]; [inhibitor] 1.23e-7 M
  % residual activity, means: 14.05%
  % residual activity: 14.8% and 13.3%
VsHdaH (1b) [5]; [inhibitor] 3.7e-7 M
  % residual activity, means: 5.45%
  % residual activity: 5.6% and 5.3%
VsHdaH (1b) [5]; [inhibitor] 1.11e-6 M
  % residual activity, means: 2.1%
  % residual activity: 1.8% and 2.4%
VsHdaH (1b) [5]; [inhibitor] 3.33e-6 M
  % residual activity, means: 1.25%
  % residual activity: 0.9% and 1.6%
VsHdaH (1b) [5]; [inhibitor] 1e-5 M
  % residual activity, means: 0.95%
  % residual activity: 1.2% and 0.7%
VsHdaH (1b) [5]; [inhibitor] 3e-5 M
  % residual activity, means: 0.75%
  % residual activity: 0.5% and 1%
VsHdaH (1b) [1]; inhibitor 1 µM
  % residual activity: 3.2%
  % residual activity, mean: 2.65%
VsHdaH (1b) [1]; inhibitor 1 µM, 1 µM
  % residual activity: 2.1%
VsHdaH (1b) [1]; inhibitor 10 µM, 10 µM
  % residual activity: 0.3% and 0.4%
VsHdaH (1b) [1]; inhibitor 10 µM
  % residual activity, mean: 0.35%
RwDmhA (1b) [2]; inhibitor 1 µM, 1 µM
  % residual activity: 10.6% and 10.9%
RwDmhA (1b) [2]; inhibitor 1 µM
  % residual activity, mean: 10.75%
RwDmhA (1b) [2]; inhibitor 10 µM, 10 µM
  % residual activity: 1.3% and 1.4%
RwDmhA (1b) [2]; inhibitor 10 µM
  % residual activity, mean: 1.35%

## CC(/C=C/C(=O)NO)=C\[C@@H](C)C(=O)c1ccc(N(C)C)cc1 [TSA, trichostatin A]
LcApaH (3); read-out: % residual activity, 1 µM inhibitor, single measurements (two columns), 40 µM LGKac, 60 min, 37 °C
  remaining activity at 1 µM: 1.1%
LcApaH (3); read-out: % residual activity, 10 µM inhibitor, single measurements (two columns), 40 µM LGKac, 60 min, 37 °C
  remaining activity at 10 µM: -0.6%
LcApaH (3); read-out: % residual activity, LcApaH (3), inhibitor 1 µM, individual replicates
  remaining activity at 1 µM: 1.1%
LcApaH (3); read-out: % residual activity, LcApaH (3), inhibitor 10 µM, individual replicates
  remaining activity at 10 µM: -0.6%
LcApaH (3); read-out: % residual activity, mean, LcApaH (3), inhibitor 10 µM, mean
  remaining activity at 10 µM: -0.6%
PsApaH (4) [6]; [inhibitor] 1.52e-9 M
  % residual activity, means: 95.45%
  % residual activity: 94.9% and 96%
PsApaH (4) [6]; [inhibitor] 4.57e-9 M
  % residual activity, means: 83.2%
  % residual activity: 81.8% and 84.6%
PsApaH (4) [6]; [inhibitor] 1.37e-8 M
  % residual activity, means: 59.35%
  % residual activity: 56.9% and 61.8%
PsApaH (4) [6]; [inhibitor] 4.12e-8 M
  % residual activity, means: 32.65%
  % residual activity: 30.6% and 34.7%
PsApaH (4) [6]; [inhibitor] 1.23e-7 M
  % residual activity, means: 15.2%
  % residual activity: 14.4% and 16%
PsApaH (4) [6]; [inhibitor] 3.7e-7 M
  % residual activity, means: 6.2%
  % residual activity: 5.6% and 6.8%
PsApaH (4) [6]; [inhibitor] 1.11e-6 M
  % residual activity, means: 2.35%
  % residual activity: 2.1% and 2.6%
PsApaH (4) [6]; [inhibitor] 3.33e-6 M
  % residual activity, means: 0.95%
  % residual activity: 0.6% and 1.3%
PsApaH (4) [6]; [inhibitor] 1e-5 M
  % residual activity, means: -0.25%
  % residual activity: -0.1%
PsApaH (4) [6]; [inhibitor] 3e-5 M
  % residual activity, means: -1.6%
  % residual activity: -1.8% and -1.4%
PsApaH (4) [3]; inhibitor 1 µM
  % residual activity: 2.7%
  % residual activity, mean: 2.7%
PsApaH (4) [3]; inhibitor 10 µM, 10 µM
  % residual activity: -0.6% and -0.3%
PsApaH (4) [3]; inhibitor 10 µM
  % residual activity, mean: -0.45%

“And” between values parts separate entries of the source, which are not always exact repeats. Identical values can stand only once. Like-named read-outs stand apart in the source and are kept apart here.
